Results published in PubChem BioAssay AID1476 (National Center for Advancing Translational Sciences (NCATS), 2009).
Among all 200,000 compounds or so, about 4,500 (2.2%) were called active. Inconclusive means that the source gave no clear call. Such entries were picked first, then a sample of the others. The call rests on the fitted dose curve; in most records, active means well fitted inhibition curve with a large enough effect; inconclusive means small, poorly fitted or top-dose-only effect, or effect the other way; inactive means flat fitted curve, though single readings scatter. Where the call is inconclusive, the potency comes from a doubtful curve fit.

These molecules were tested against Cruzipain (Trypanosoma cruzi) (UniProt P25779) (assay: qHTS Assay for Promiscuous and Specific Inhibitors of Cruzain (without detergent)). Conditions: purified cruzain, Z-FR-AMC fluorescence, no detergent.
Sequence of UniProt P25779 (P25779 whole entry, looked up): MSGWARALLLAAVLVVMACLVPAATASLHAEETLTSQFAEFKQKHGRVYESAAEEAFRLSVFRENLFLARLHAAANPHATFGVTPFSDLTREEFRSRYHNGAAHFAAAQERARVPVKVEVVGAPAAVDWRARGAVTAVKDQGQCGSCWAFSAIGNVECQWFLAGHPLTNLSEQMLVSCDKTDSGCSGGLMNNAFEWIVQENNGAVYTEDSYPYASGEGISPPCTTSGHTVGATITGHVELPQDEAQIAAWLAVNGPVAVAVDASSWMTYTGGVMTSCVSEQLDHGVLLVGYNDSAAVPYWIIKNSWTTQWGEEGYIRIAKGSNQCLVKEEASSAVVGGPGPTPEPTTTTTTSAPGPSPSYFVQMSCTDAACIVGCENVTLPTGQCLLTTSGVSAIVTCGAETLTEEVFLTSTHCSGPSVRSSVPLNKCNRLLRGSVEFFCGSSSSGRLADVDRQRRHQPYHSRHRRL
Procedure, shortened: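 Purified cruzain at 1.5 nM, pre-incubated 15 min with compound at room temperature in 100 mM sodium acetate pH 5.5, 5 mM DTT, 0.00005% Triton X-100. Reaction started with 2 uM Z-FR-AMC; AMC fluorescence increase over 60 s gives rate.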
Further: nearly all actives have a fitted effect of over 40% in size.
Potency means the concentration at half of the fitted maximal effect; tags describe the fitted curve by direction and shape.
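Wherever max response, negative = inhibition is given: plate controls were enzyme without inhibitor for no effect and buffer without enzyme for full effect.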

Row | SMILES | Potency | max response, negative = inhibition
1 | C/C(=N\NC(=S)Nc1ccc(F)cc1)c1ccc2c(c1)OCCO2 | inconclusive: 20 µM [inhibitor, partial curve, poor fit] | –
2 | CC(OC(=O)c1ccc(Cl)c(S(=O)(=O)N2CCc3ccccc32)c1)C(=O)Nc1ncc(Cl)cc1Cl (stereo not drawn) | inconclusive: 39.8 µM [inhibitor, single point] | –
3 | CCc1ccc(CNC(=O)CN2C(=O)C3CCCCN3c3ccc(C(=O)N4CCCC4)cc32)cc1 (stereo not drawn) | – | inactive: -7.67%
4 | COc1ccccc1C(=O)NCC(=O)OC(C)C(=O)NC(=O)NC1CCCCC1 (stereo not drawn) | active: 10 µM | –
5 | COc1cccc(NC(=O)C(C)n2c(=O)cc(C(F)(F)F)c3c(C)nn(C)c32)c1 (stereo not drawn) | inconclusive: 7.94 µM [activator, full curve, poor fit] | –
6 | Cc1ccc(NC(=O)Cc2cn3ccsc3n2)nc1 | inconclusive: 31.6 µM [inhibitor, single point] | –
7 | O=C(NN1C(=O)c2cc(Br)ccc2NC1c1cc(Br)cc(Br)c1O)c1ccncc1 (stereo not drawn) | active: 10 µM | –
8 | CCc1ccccc1NC(=O)CCn1cccn1 | – | inactive: 8.68%
9 | CC1(C)Oc2ccc(C(=O)NC3CC3)cc2N(CC(=O)N2CCOCC2)C1=O | – | inactive: 5.62%
10 | CCc1cccc(OCC(=O)Nc2ccc(S(=O)(=O)Nc3onc(C)c3C)cc2)c1 | inconclusive: 39.8 µM [activator, single point] | –
11 | COc1cc2c(cc1OC)CN(C(=O)c1ccc(OC)c(S(=O)(=O)N3CCOCC3)c1)CC2 | inconclusive: 39.8 µM [activator, single point] | –
12 | Cc1onc(-c2ccccc2Cl)c1C(=O)NC1C(=O)N2C1SC(C)(C)C2C(=O)O (stereo not drawn) | inconclusive: 39.8 µM [activator, single point] | –
13 | O=C(Nc1nc(-c2cccs2)cs1)c1cccc(S(=O)(=O)N2CCCCCC2)c1 | inconclusive: 39.8 µM [inhibitor, single point] | –
14 | Cc1cc(/C=C/c2ccc3cc(N(C)C)ccc3[n+]2C)c(C)n1-c1ccccc1 | – | inactive: -1.99%
15 | CCC(c1nnnn1CCOC)N(Cc1ccc(C)cc1)Cc1cc2cc(OC)ccc2[nH]c1=O (stereo not drawn) | inconclusive: 39.8 µM [activator, single point] | –
16 | COc1ccc(C(=O)/C=C/Nc2ccc([N+](=O)[O-])cc2C)c(OC)c1 | inconclusive: 31.6 µM [activator, single point] | –
17 | O=C(CSc1nc2[nH]ncc2c(=O)n1-c1ccccc1)c1ccc2c(c1)OCCO2 | inconclusive: 31.6 µM [activator, single point] | –
18 | Cc1ccn2c(Nc3ccccc3)c(-c3c[nH]c4ccccc34)nc2c1 | active: 12.6 µM | –
19 | Cc1cc(C)cc(NC(=O)C(=O)NCCc2sc(-c3cccc(F)c3)nc2C)c1 | – | inactive: -2.7%
20 | COc1ccc(-c2c3c([nH]c(=S)c2C#N)CCC3)cc1 | active: 15.8 µM | –
21 | O=C(Nc1ccn(Cc2c(F)c(F)cc(F)c2F)n1)c1ccc(COc2ccccc2Cl)cc1 | inconclusive: 31.6 µM [inhibitor, single point] | –
22 | Cc1ccccc1-n1c(C)nnc1SCc1nc2ccccc2s1 | inconclusive: 20 µM [inhibitor, single point] | –
23 | O=C(O)c1cc(-c2ccccc2)nn1Cc1ccccc1 | – | inactive: -1.82%

Row | SMILES | Potency | max response, negative = inhibition
24 | Cc1cccn2c(=O)c(/C=C(\C#N)S(=O)(=O)c3ccccc3)c(N3CCC(C(N)=O)CC3)nc12 | inconclusive: 39.8 µM [activator, single point] | –
25 | COc1ccc(C)cc1NC(=O)N(C(C)C)C1CCN(C(C)=O)CC1 | – | inactive: -5.32%
26 | Nc1nc2ccccc2nc1N | active: 20 µM | –
27 | OCCn1c(CSc2nnc(-c3ccco3)n2-c2ccccc2)nc2ccc(Cl)cc21 | inconclusive: 39.8 µM [activator, single point] | –
28 | CC(=O)Nc1nc(SCc2cccc3ccccc23)n[nH]1 | inconclusive: 31.6 µM [inhibitor, single point] | –
29 | O=C(CSc1nnnn1-c1ccccc1)Nc1ncc(Cc2ccccc2Cl)s1 | – | inactive: 11.4%
30 | Cc1ccc(NC(=O)CSc2nnc(-c3ccc(S(=O)(=O)N4CCOCC4)cc3)n2C)cc1 | inconclusive: 39.8 µM [activator, single point] | –
31 | CCOC(=O)c1c(C)[nH]c(C(=O)CSc2ccccc2)c1C | inconclusive: 31.6 µM [inhibitor, single point] | –
32 | N=P(N1CCOCC1)(N1CCOCC1)C12CC3CC(CC(C3)C1)C2 | active: 25.1 µM | –
33 | Cn1c(=O)c2cc(S(=O)(=O)NCCC(=O)N3CC=C(c4ccccc4)CC3)ccc2n(C)c1=O | inconclusive: 39.8 µM [activator, single point] | –
34 | COc1ccc(-c2nn(-c3ccccc3)cc2/C=N/NS(=O)(=O)c2ccccc2)cc1 | inconclusive: 39.8 µM [inhibitor, single point] | –
35 | C/C(=N\NC(=O)c1ccc(Cl)cc1)c1ccc(N2CCOCC2)cc1 | inconclusive: 39.8 µM [inhibitor, single point] | –
36 | COc1cc(Cl)c(C)cc1NC(=O)CSc1cc(Cl)ccc1Cl | inconclusive: 31.6 µM [inhibitor, single point] | –
37 | CC1=C(C(N)=O)C(c2ccc(C)cc2)n2nc(SCc3ccccc3)nc2N1 (stereo not drawn) | – | inactive: 19.7%
38 | COc1ccc(S(=O)(=O)Nc2cccc(-c3ccc(N4CCCC4)nn3)c2)cc1F | – | inactive: -15.3%
39 | O=C(COC(=O)c1c2c(nc3ccccc13)/C(=C\c1cccs1)CCC2)Nc1ccccc1 | active: 10 µM | –
40 | COc1ccccc1-c1nn(CCC(=O)Nc2ccc(C)cc2)c2nc(C)cc(C)c12 | inconclusive: 39.8 µM [activator, single point] | –
41 | CCN1CCN(CCCNC(=O)Cn2nc(C)n3c(cc4c(OC)cccc43)c2=O)CC1 | – | inactive: -4.79%
42 | CCCCOc1ccc(C(=O)Nc2cc(-c3cn4cccnc4n3)ccc2OC)cc1 | – | inactive: -2.67%
43 | Cc1cc(C)c(C#N)c(Nc2ccccc2Cl)n1 | inconclusive: 25.1 µM [inhibitor, single point] | –
44 | CCOc1c(Cl)cc(CNc2ccc3[nH]c(=O)[nH]c3c2)cc1OC | – | inactive: -1.58%
45 | O=C(Oc1ccc(N(Cc2cccs2)C2=NS(=O)(=O)c3ccccc32)cc1)c1ccccc1F | inconclusive: 39.8 µM [inhibitor, single point] | –
46 | COc1ccc(NC(=O)NC(C)c2c(-n3cccc3)sc(C)c2C)cc1OC (stereo not drawn) | inconclusive: 31.6 µM [activator, single point] | –

Row | SMILES | Potency | max response, negative = inhibition
47 | CNS(=O)(=O)c1cccc(C(=O)OCC(=O)c2cc(C)n(-c3ccc4c(c3)OCO4)c2C)c1 | inconclusive: 25.1 µM [inhibitor, single point] | –
48 | COc1ccc(-c2nc3ccccc3o2)cc1NC(=O)c1cccnc1 | inconclusive: 39.8 µM [activator, single point] | –
49 | COc1ccc(CCNC(=O)c2ccc3c(c2)N=C(C)c2ccccc2S3)cc1OC | inconclusive: 39.8 µM [activator, single point] | –
50 | CCN(CC)CCNc1ncnc2c1[nH]c1ccc(OC)cc12 | inconclusive: 31.6 µM [activator, single point] | –
51 | O=c1[nH]c2cc(Cl)ccc2n(CCNc2ncc(C(F)(F)F)cc2Cl)c1=O | inconclusive: 5.01 µM [inhibitor, full curve, poor fit] | –
52 | COc1ccc(NC2CC(=O)N(CCc3ccccc3)C2=O)cc1 (stereo not drawn) | inconclusive: 31.6 µM [inhibitor, single point] | –
53 | CC(C(=O)c1c[nH]c2ccccc12)N1CCc2ccccc2C1 (stereo not drawn) | – | inactive: 2.86%
54 | CCOC(=O)CC(CC(C)=O)C(=O)OCC (stereo not drawn) | – | inactive: 1.11%
55 | Nc1nc(Nc2cccc(F)c2)nc2ccccc12 | active: 15.8 µM | –
56 | CC1Cc2cc(/C(O)=C3/C(=O)C(=O)N(CCN4CCOCC4)C3c3cccc(Cl)c3)ccc2O1 (stereo not drawn) | inconclusive: 39.8 µM [activator, single point] | –
57 | COc1cccc(NC(=S)NCCC(c2ccccc2)c2ccccc2)c1 | – | inactive: -8.62%
58 | CCc1cccc(NC(=O)c2ccc3c(c2)N(Cc2cccc(Cl)c2)C(=O)c2ccccc2S3=O)c1 (stereo not drawn) | – | inactive: -5.71%
59 | Cn1nc([N+](=O)[O-])nc1Oc1ccc2ccccc2c1 | – | inactive: -3.69%
60 | Cc1ccc(C(=O)N/C(=C\c2ccccc2)C(=O)NCc2ccncc2)cc1 | inconclusive: 39.8 µM [activator, single point] | –
61 | Cc1cc(-c2csc(N)n2)c(C)n1CCC(C)C | active: 25.1 µM | –
62 | C(=N\N(c1ccccc1)c1ccccc1)/c1ccc2c(c1)OCO2 | inconclusive: 39.8 µM [inhibitor, single point] | –
63 | Cn1c(-c2ccc(Cl)cc2)ccc(C#N)c1=O | inconclusive: 25.1 µM [inhibitor, single point] | –
64 | CCCOc1ccc([C@@H]2C3CN(C(=O)OCC)CC=C3C(C#N)=C(N)C2(C#N)C#N)cc1OC (stereo partly drawn) | inconclusive: 31.6 µM [activator, single point] | –
65 | CCOC(=O)C1CCN(Cc2cn3c(-c4ccc(OC)cc4)nnc3s2)CC1 | – | inactive: -7.68%
66 | O=S(=O)(Nc1ccc2c(c1)nc1n2CCN(Cc2ccccc2)C1)c1ccccc1 | inconclusive: 39.8 µM [inhibitor, single point] | –
67 | Cc1ccc(-c2nnn(CC(=O)Nc3ccc4nn(-c5ccccc5)nc4c3)n2)o1 | active: 10 µM | –
68 | Cc1ccc(CNC(=O)c2ccc3c(c2)c(C)c(C)n3Cc2ccc(Cl)cc2)o1 | inconclusive: 39.8 µM [inhibitor, single point] | –
